# Results: publication PMC6451091
# Some of the results follow. For some of these results: At the low end of the ranking, values are background and their order means little. For some of these results: The protein was read in a cell extract, so binding may be indirect.
# What was measured:
# Details in all cases: 20 mM HEPES pH 7.9, 100 mM NaCl, 1 mM DTT, 0.2 mg/mL BSA, 0.02% Triton X-100, 2% milk, 0.4 mg/mL salmon testes DNA; 1 h; temperature not stated; high values mean tight binding; double strand, one strand shown; sequences stand for … in GCCTAGCAC…GTGCTAGGTCTTGATTCGCTTGACGCTGCTG
# PU.1 (IVT) = PU.1 (IVT) (UniProt P17947); test: protein-binding microarray (PBM)
# [1] = target: PU.1 (endogenous, THP-1 nuclear extract) (UniProt P17947); test: nuclear extract protein-binding microarray (nextPBM)
# [2] = target: T1, FLI1 (endogenous, THP-1 nuclear extract) (UniProt Q01543); test: as above
# T1 sequence: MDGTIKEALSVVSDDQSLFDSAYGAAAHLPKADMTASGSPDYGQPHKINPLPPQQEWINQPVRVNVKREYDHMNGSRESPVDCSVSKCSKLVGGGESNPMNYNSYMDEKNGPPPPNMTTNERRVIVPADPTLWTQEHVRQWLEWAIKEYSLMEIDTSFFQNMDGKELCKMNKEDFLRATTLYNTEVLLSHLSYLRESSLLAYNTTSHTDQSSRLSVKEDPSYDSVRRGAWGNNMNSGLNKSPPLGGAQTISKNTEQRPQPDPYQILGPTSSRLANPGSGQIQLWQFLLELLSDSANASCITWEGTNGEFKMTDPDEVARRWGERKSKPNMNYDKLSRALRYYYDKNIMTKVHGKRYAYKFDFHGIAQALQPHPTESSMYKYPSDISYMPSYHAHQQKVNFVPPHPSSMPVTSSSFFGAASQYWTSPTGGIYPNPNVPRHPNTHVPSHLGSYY
# [3] = system: PU.1 (endogenous, THP-1 nuclear extract) + IRF8 (endogenous, THP-1 nuclear extract); test: as above
Sequence,binding signal (PU.1 (IVT)) [z-score],binding signal [1] [z-score],binding signal [2] [z-score],binding signal [3] [z-score]
CTTCCTCAGCGACCATGGCC,1.02,1.16,0.299,0.837
TCCCAGATCAAGGTACTGGT,-0.476,-0.4,-0.267,1.14
AAATGTCCCCTGTGGCAACA,-0.341,-0.276,-0.58,1.58
TGGTTGTACCACACCTCAAC,-0.0859,-0.215,-0.346,-0.208
ATAATTATATGAATGTGGTC,-0.503,-0.285,-0.118,1.57
ACACTCCCACTAGTGCCATG,-0.274,-0.112,-0.585,0.486
GGAAGTTCACCCATTTGGCA,0.853,1.17,2.81,-0.0624
GCTTCCTCTGCTTTAAATTC,2.37,2.09,2.37,-0.003
TGTCACAAATCCATCACTGA,0.291,-0.2,-0.524,-0.706
GAAGAAGCTGCGTGAAAGAG,-0.117,-0.252,-0.373,-1.5
ATTTCTGCTGCGTGAAACTA,0.356,-0.158,-0.217,1.97
TTAGAAGGAAAAAGAGAGTG,-0.482,-0.289,0.403,0.532
GCTATACTAAAAAGACATAT,0.0241,-0.775,0.111,0.476
GTCCTTCAGGATATATTTAA,-0.32,-0.0429,1.19,-0.518
GCATTCCGAGTTACTGGGAC,-0.648,-0.0833,-0.399,-0.59
CTGGGGTTTTGTTTAGATAG,-0.293,-0.517,-0.245,0.437
AGACATGAGCTACCATGTCC,-0.326,-0.19,-0.269,1.07
CAAAGATCTTTGTTATTCAT,-0.209,-0.587,0.125,-0.811
CTCCCAGAAAGCAGAACAAA,4.47,4.73,1.07,0.294
GAAGCAGAGATTAAAGTAAA,-0.32,-0.596,-0.393,-0.464
CCAGGAGTCCTTGACCAAGT,-0.303,-0.371,-0.692,0.719
GGCTGGCCTGCGTGAAACTC,-0.665,-0.419,-0.861,1.8
CAAAGTTCTGTCTTCATGGA,-0.0387,0.0899,-0.159,0.169
GAGAAGGCCAAACCCTGGGG,-0.808,0.0959,-1.03,0.754
TTACATGGATGGGGATGTGG,0.84,1.06,0.577,0.0452

Sequence,binding signal (PU.1 (IVT)) [z-score],binding signal [1] [z-score],binding signal [2] [z-score],binding signal [3] [z-score]
TTTTCTATCTCTCCCTTCTA,-0.293,-0.358,-0.318,0.228
TGGCAGCCAAAGTGATCCTT,-0.135,-0.32,-0.562,-0.0943
GCCACCGCCGGAGCGAAAAG,-0.726,-0.406,0.215,0.567
ACTTGTGAAGGAAATGAATC,0.81,0.618,1.79,-0.0286
TGACTGGAGTGTAATGAGGT,-0.869,-0.319,-0.492,0.357
CCAGTGCCATATAAACAATA,-0.438,-0.373,0.0288,-0.334
TAGTTCCCTCCCTGTCAAAG,2.32,1.94,0.666,0.0463
CTGTGACTCAGCACTGAGTT,-0.323,-0.616,-0.364,1.47
ATACTCCACCCCTTTCTCAA,-0.0234,-0.6,-0.356,-0.278
TTGCCCTTCCCTCCCTCCTC,0.0537,0.874,0.425,2.33
CAAGGCTGACTGTGGAACCC,-0.04,0.235,-0.514,0.523
CTTTTATTATAAACTCTTCA,-0.297,-0.323,-0.242,-0.373
CACAAGGCTGCGTGAAACTC,-0.811,-0.381,-0.992,1.86
CTTTGGACTGAGAAGCATCG,-0.523,-0.236,0.0903,-0.707
ACGCTGGATCAGGTGACGCA,-0.628,-0.519,-0.339,-0.824
GCTTTAACTGCCTGAAACTG,-0.499,-0.721,-0.513,1.16
ATCTGAAGTATTTACTCTCG,0.0171,-0.34,-0.527,0.657
TGAATCCCGAAACACTCTAG,-0.322,-0.649,0.121,0.888
AAGCAGAACTTCTATTCCAC,1.03,1.12,-0.0906,-0.111
CTTCCCAAATAGGCTGAGTT,0.617,0.6,0.0342,-0.0695
CCAGCTTCAGTTTGCTGAGT,-0.873,-0.186,-0.229,0.964
ATCACTATGATTTCATTCCC,-0.456,-0.37,-0.377,-0.995
GAGAAGGCTGCATGAAACTC,-0.593,-0.326,-0.128,3.01
CAACAATGTTCACAGCATCT,-0.303,-0.441,-0.733,-0.294
